Results published in the supplement of paper PMC3334620.
In all, about 33,000 sequences were measured (“E-score (-0.5 to 0.5)”: median about -0.035, highest 2% from about 0.35 on). This is one part of the list.

target: T1, Pdr3 (UniProt P33200); assay: PBM E-score (8-mer binding enrichment) (E-score (-0.5 to 0.5)); higher = stronger / more preferred TF binding; most listed sequences are background and not binding sites; settings: protein concentration: 200 nM; construct: GST-full length
T1 sequence: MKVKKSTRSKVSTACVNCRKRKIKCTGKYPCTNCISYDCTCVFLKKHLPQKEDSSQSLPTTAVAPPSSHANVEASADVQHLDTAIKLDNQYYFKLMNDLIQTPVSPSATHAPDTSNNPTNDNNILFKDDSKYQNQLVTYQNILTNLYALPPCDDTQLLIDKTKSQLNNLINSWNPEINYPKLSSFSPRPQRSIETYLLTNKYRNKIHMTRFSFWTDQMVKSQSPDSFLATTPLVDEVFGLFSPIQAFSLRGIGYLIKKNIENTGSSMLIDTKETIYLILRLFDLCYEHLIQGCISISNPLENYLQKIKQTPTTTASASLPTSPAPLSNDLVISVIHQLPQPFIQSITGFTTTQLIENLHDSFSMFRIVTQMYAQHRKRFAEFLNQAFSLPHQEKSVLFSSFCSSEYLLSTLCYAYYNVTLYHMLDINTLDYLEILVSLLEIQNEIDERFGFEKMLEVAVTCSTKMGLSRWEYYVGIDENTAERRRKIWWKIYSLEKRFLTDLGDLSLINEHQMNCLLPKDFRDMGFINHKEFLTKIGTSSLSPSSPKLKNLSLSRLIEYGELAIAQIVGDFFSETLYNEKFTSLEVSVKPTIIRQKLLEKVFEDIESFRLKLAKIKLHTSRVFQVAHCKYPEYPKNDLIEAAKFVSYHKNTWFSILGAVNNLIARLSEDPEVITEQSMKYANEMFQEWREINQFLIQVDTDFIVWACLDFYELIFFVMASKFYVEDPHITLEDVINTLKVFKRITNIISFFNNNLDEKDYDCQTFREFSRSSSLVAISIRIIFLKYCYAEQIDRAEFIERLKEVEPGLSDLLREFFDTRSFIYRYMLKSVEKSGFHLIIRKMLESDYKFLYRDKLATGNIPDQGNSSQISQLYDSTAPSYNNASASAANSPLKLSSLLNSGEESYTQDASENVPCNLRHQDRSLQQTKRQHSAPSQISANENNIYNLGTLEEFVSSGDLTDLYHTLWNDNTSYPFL
In short: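 Detection of bound protein used fluorescent anti-GST, with scans normalised by masliner. The proteins were GST-tagged yeast transcription factors applied at about 100-200 nM to universal all-10-mer Agilent arrays made double-stranded by primer extension. Each ungapped eight-base word, pooled with its reverse complement, was scored with an E-score from the Universal PBM Analysis Suite.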

In order of rising “PBM E-score” value:
1. AGGAGAGC  -0.326
2. AGTCCTAG  -0.325
3. GGCTTAGA  -0.321
4. GCCCTCGA  -0.315
5. CAGTCGTC  -0.3
6. ACGAGCCT  -0.285
7. GACACGTA  -0.284
8. CTGTAACA  -0.281
9. CTACTTAA  -0.268
10. AGACTAGA  -0.266
11. CCTCCTGA  -0.262
12. AATAAGGA  -0.256
13. TACGTTCA  -0.255
14. ACGGCCCC  -0.241
15. CTAGTCGC  -0.228
16. AGGGGGGC  -0.222
17. AGAAGACA  -0.219
18. ACACGAGC  -0.203
19. ACACCAAC  -0.201
20. CTGCTCAA  -0.197
21. CTGGGACC  -0.197
22. CAACGTGA  -0.19
23. TGGACTAA  -0.183
24. AGTCCTAA  -0.183
25. GGCAAGCA  -0.179
26. ATTTACAA  -0.16
27. ACTTGACC  -0.154
28. ACTCTGTG  -0.153
29. CTAGACAA  -0.152
30. AGCCAAGG  -0.152
31. AGCCAAGA  -0.15
32. AGCAAAAA  -0.15
33. AAGGTCAT  -0.149
34. GTGATAGA  -0.148
35. GTCATGTA  -0.145
36. CGTGGTAC  -0.143
37. ATCGTAGC  -0.143
38. CGTAGGCC  -0.142
39. AAACTGCG  -0.129
40. ACCTTAAT  -0.126
41. CATTCAAG  -0.123
42. ACACACGT  -0.121
43. CTACCCTC  -0.121
44. AACTCCAG  -0.12
45. AAGCGTTG  -0.12
46. AATCCTTC  -0.114
47. CTAAGCAG  -0.113
48. TCACAGGA  -0.113
49. GAAGCGGC  -0.108
50. AAGCATAA  -0.107
51. CAAGCATG  -0.106
52. CCCTTTGC  -0.105
53. AGCTAGAC  -0.103
54. GTTTGTTA  -0.1
55. ACGTAATC  -0.0988
56. AACTTAGC  -0.0982
57. ATAACTTG  -0.0945
58. AACTAGCC  -0.0913
59. AGTGTTTA  -0.09
60. GTATATAA  -0.0896
61. GGCTCACA  -0.0875
62. ATACAGTA  -0.085
63. GCGATCAA  -0.0789
64. ACGCTACA  -0.0745
65. AATTTCAG  -0.074
66. CTATAGCA  -0.0675
67. AGATAAAG  -0.0658
68. AGACATAC  -0.058
69. CAATTCAA  -0.0576
70. GTCAGTGA  -0.0573
71. AGCGTATC  -0.057
72. GATTGGCA  -0.0565
73. ATTGGACG  -0.0498
74. ACCGTGAC  -0.0489
75. CTTAGTTA  -0.0476
76. TCCATACA  -0.0458
77. ACCCCTGA  -0.0444
78. GACGTGAA  -0.0437
79. AAAAAAGT  -0.04
80. AAAACTTA  -0.0367
81. CAATGTCA  -0.0363
82. ACTGTGAC  -0.0328
83. CCACATCA  -0.0319
84. AAAGAGAC  -0.0306
85. CAGCGTAG  -0.0303
86. AGTTGGCA  -0.0295
87. AGTGTGAA  -0.0237
88. CCATCTTC  -0.014
89. ACAATCCA  -0.0121
90. CAGGAACA  -0.0115
91. CCAGCAAC  -0.00856
92. AGCGTCTC  -0.00572
93. TGTTGTAA  -0.00547
94. CTAACGGC  -0.00464
95. GGACTTAC  0.00247
96. CATCAGCG  0.0028
97. GCAATGAA  0.00457
98. AATCGGGC  0.00554
99. ATCCAAGG  0.00676
100. TCAATCCA  0.00934
101. ATGGCAGA  0.0132
102. AATAACCG  0.0168
103. GAGTATGC  0.0203
104. ACAGTCGG  0.0252
105. ACTTCACT  0.027
106. ACAGCAAG  0.0325
107. TAACACGA  0.0333
108. CACACCAC  0.0393
109. ACGACGGC  0.04
110. CATCGAGC  0.0426
111. ATGAGATA  0.0428
112. AATTTAGG  0.0463
113. AACCATAG  0.0469
114. ACATATAT  0.0497
115. ATGGATTC  0.0503
116. CCCGTCTC  0.0507
117. TATTTCCA  0.0517
118. TACATATA  0.0592
119. ACTTTGCC  0.0636
120. AAGGACCG  0.0679
121. AATTGAGT  0.0708
122. CATTCCAC  0.0732
123. ACCAGCAA  0.0732
124. AGCGTCCG  0.0784
125. ATGATGCG  0.079
126. AAAAATGG  0.0817
127. AGAGGCAT  0.0819
128. AGAGAAAA  0.0894
129. CAGCTGCC  0.0916
130. GACAACTA  0.0917
131. CGGTGCCC  0.104
132. ATGGGTTG  0.113
133. ATTGATCG  0.114
134. GATGCTAA  0.128
135. GGATGACA  0.13
136. GCACCCAA  0.132
137. ACTATCGG  0.147
138. CCTTGCCC  0.155
139. CCCGAGTC  0.165
140. ATTTCGGC  0.169
141. GAATGTTA  0.178
142. ACGGCGAC  0.182
143. ATTTAAAG  0.19
144. CATGTCGG  0.191
145. TCACGGCA  0.193
146. ATGCATCG  0.193
147. CCGCGATC  0.194
148. AGTGACGG  0.195
149. CATTCGCG  0.196
150. CGGAGCCC  0.208
151. CAAAAAAA  0.211
152. CACTACGG  0.222
153. CCTCCGTA  0.222
154. GAATGGCC  0.225
155. CCGAGGCG  0.23
156. CGACGGGC  0.276
157. CGGATTTA  0.281
158. AACCCCGG  0.312
159. ACTCCGGC  0.315
160. CCGGGCAG  0.316
161. GGTCCGAA  0.319
162. TCCGATCA  0.322
163. CTCCGGTC  0.328
164. CAGCCGCG  0.337
165. GCGGAAGC  0.347
166. CCGCGCCG  0.353
167. TCCGAGGA  0.354
168. ATGCGCGG  0.355
169. TCCGTCAA  0.375
170. CTTCCGTA  0.379
171. CCGGTCCG  0.414
172. GCGGAACC  0.482
